This is an account of results in the supplement of paper PMC12217912.

This is one part of the list. Sequences were assembled here from the parent chain. Inactive controls read about 0.05.

The chains are these.
B1: TEV protease; numbered along this chain (parent)
chain: MGESLFKGPRDYNPISSSICHLTNESDGHTTSLYGIGFGPFIITNKHLFRRNNGTLVVQSLHGVFKVKDTTTLQQHLVDGRDMIIIRMPKDFPPFPQKLKFREPQREERICLVTTNFQTKSMSSMVSDTSCTFPSGDGIFWKHWIQTKDGQCGSPLVSTRDGFIVGIHSASNFTNTNNYFTSVPKNFMELLTNQEAQQWVSGWRLNADSVLWGGHKVFMVKPEEPFQPVKEATQL

Variants of B1 are the subject of this assay. As to the kind of experiment: raw area under fraction-flipped curve 0-4 h after induction (AUC4h, not background-subtracted), DNA-recorder readout of cleavage of the substrate (dimensionless); higher = more cleavage of the substrate by the protease variant. Particulars: temperature: 34 °C; time window: 0-4 h after rhamnose induction.
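Also: Bxb1 expression induced with 0.2% (w/v) L-rhamnose at OD600 near 0.5, cultures sampled hourly, flipped fraction per protease–substrate barcode pair counted by paired-end Illumina sequencing.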

Turning to MGESLFKGPRDYNPISSSICHLTNESDGHTTSLYGIGFGPFIITNKHLFRRNNGTLVVQSLHGVFKVKDTTTLQQHLVDGRDMIIIRMPKDFPPFPQKLKFREPQREERICLVTTNFQTKSMSSMVSDTSCTFPSGDGIFWKHWIQTKDGQCGSPLVSTRDGFIVGIHSASNFTNTNNYFTSVPKNFMELLTNQEAQQWVSGWRLNADSVLWGGHKVFMVKGEEPFQPVKEATQL [P222G], the “area with substrate EALYFQS” value turned out to be 0.106, the “area with substrate ECLYFQS” value was 0.0922, the “area with substrate EDLYFQS” value came to 0.131 and the “area with substrate EGLYFQS” value came out at 0.0705. The “area with substrate EHLYFQS” value was 0.119, the “area with substrate EILYFQS” value stood at 0.0484, the “area with substrate EKLYFQS” value came to 0.12 and the “area with substrate ELLYFQS” value came out at 0.0923. For the same variant, the “area with substrate EMLYFQS” value is 0.112, the “area with substrate EPLYFQS” value stood at 0.123, the “area with substrate EQLYFQS” value was 0.106 and the “area with substrate ERLYFQS” value came out at 0.0864. Also, the “area with substrate ESLYFQS” value came out at 0.095, the “area with substrate EVLYFQS” value came to 0.0874 and the “area with substrate EYLYFQS” value was 0.0921.
Take MGESLFKGPRDYNPISSSICHLTNESDGHTTSLYGIGFGPFIITNKHLFRRNNGTLVVQSLHGVFKVKDTTTLQQHLVDGRDMIIIRMPKDFPPFPQKLKFREPQREERICLVTTNFQTKSMSSMVSDTSCTFPSGDGIFWKHWIQTKDGQCGSPLVSTRDGFIVGIHSASNFTNTNNYFTSVPKNFMELLTNQEAQQWVSGWRLNADSVLWGGHKVFMVKVEEPFQPVKEATQL [P222V]: the “area with substrate EALYFQS” value was 0.097, the “area with substrate ECLYFQS” value was 0.0897, the “area with substrate EDLYFQS” value is 0.129 and the “area with substrate EELYFQS” value was determined as 0.108. For the same variant, the “area with substrate EHLYFQS” value stood at 0.0703, the “area with substrate EILYFQS” value was found to be 0.0857, the “area with substrate EKLYFQS” value came to 0.0982 and the “area with substrate ELLYFQS” value turned out to be 0.0858. Further, the “area with substrate EMLYFQS” value was 0.0927, the “area with substrate EPLYFQS” value was 0.0915, the “area with substrate EQLYFQS” value is 0.138 and the “area with substrate ERLYFQS” value came out at 0.0906. For the same variant, the “area with substrate ESLYFQS” value is 0.0949, the “area with substrate ETLYFQS” value worked out at 0.0991, the “area with substrate EVLYFQS” value is 0.0865 and the “area with substrate EWLYFQS” value was 0.0821. The “area with substrate EYLYFQS” value is 0.0869.
MGESLFKGPRDYNPISSSICHLTNESDGHTTSLYGIGFGPFIITNKHLFRRNNGTLVVQSLHGVFKVKDTTTLQQHLVDGRDMIIIRMPKDFPPFPQKLKFREPQREERICLVTTNFQTKSMSSMVSDTSCTFPSGDGIFWKHWIQTKDGQCGSPLVSTRDGFIVGIHSASNFTNTNNYFTSVPKNFMELLTNQEAQQWVSGWRLNADSVLWGGHKVFMVKPFEPFQPVKEATQL [E223F]: the “area with substrate EALYFQS” value worked out at 0.0951, the “area with substrate ECLYFQS” value was 0.0798, the “area with substrate EELYFQS” value came out at 0.1 and the “area with substrate EFLYFQS” value was 0.0846. Also, the “area with substrate EGLYFQS” value amounted to 0.0964, the “area with substrate EHLYFQS” value is 0.0949, the “area with substrate EILYFQS” value was 0.072 and the “area with substrate EKLYFQS” value turned out to be 0.0824. Moreover, the “area with substrate ELLYFQS” value came to 0.0636, the “area with substrate ERLYFQS” value came to 0.083, the “area with substrate ESLYFQS” value was determined as 0.0794 and the “area with substrate ETLYFQS” value was 0.053. Besides, the “area with substrate EVLYFQS” value was found to be 0.0907 and the “area with substrate EWLYFQS” value was found to be 0.053.
MGESLFKGPRDYNPISSSICHLTNESDGHTTSLYGIGFGPFIITNKHLFRRNNGTLVVQSLHGVFKVKDTTTLQQHLVDGRDMIIIRMPKDFPPFPQKLKFREPQREERICLVTTNFQTKSMSSMVSDTSCTFPSGDGIFWKHWIQTKDGQCGSPLVSTRDGFIVGIHSASNFTNTNNYFTSVPKNFMELLTNQEAQQWVSGWRLNADSVLWGGHKVGMVKPEEPFQPVKEATQL [F218G]: the “area with substrate EALYFQS” value came out at 0.0722, the “area with substrate ECLYFQS” value is 0.0969, the “area with substrate EDLYFQS” value worked out at 0.109 and the “area with substrate EELYFQS” value was 0.0717. Also, the “area with substrate EHLYFQS” value came out at 0.0831, the “area with substrate EILYFQS” value was 0.0682, the “area with substrate EKLYFQS” value amounted to 0.06 and the “area with substrate ESLYFQS” value was found to be 0.0594. In addition, the “area with substrate ETLYFQS” value worked out at 0.0559.
MGESLFKGPRDYNPISSSICHLTNESDGHTTSLYGIGFGPFIITNKHLFRRNNGTLVVQSLHGVFKVKDTTTLQQHLVDGRDMIIIRMPKDFPPFPQKLKFREPQREERICLVTTNFQTKSMSSMVSDTSCTFPSGDGIFWKHWIQTKDGQCGSPLVSTRDGFIVGIHSASNFTNTNNYFTSVPKNFMELLTNQEAQQWVSGWRLNADSVLWGGHKVSMVKPEEPFQPVKEATQL [F218S]: the “area with substrate EALYFQS” value was determined as 0.117, the “area with substrate ECLYFQS” value stood at 0.0962, the “area with substrate EELYFQS” value was 0.12 and the “area with substrate EGLYFQS” value was 0.0898. For the same variant, the “area with substrate EHLYFQS” value was 0.0747, the “area with substrate EILYFQS” value was 0.0743, the “area with substrate EKLYFQS” value is 0.0946 and the “area with substrate ELLYFQS” value was 0.0817. The “area with substrate EMLYFQS” value stood at 0.0845, the “area with substrate EPLYFQS” value turned out to be 0.111, the “area with substrate EQLYFQS” value is 0.133 and the “area with substrate ERLYFQS” value was determined as 0.0883. Moreover, the “area with substrate ESLYFQS” value worked out at 0.105, the “area with substrate ETLYFQS” value is 0.148, the “area with substrate EVLYFQS” value is 0.0814 and the “area with substrate EWLYFQS” value was determined as 0.0878. Further, the “area with substrate EYLYFQS” value was 0.0968.
On to MGESLFKGPRDYNPISSSICHLTNESDGHTTSLYGIGFGPFIITNKHLFRRNNGTLVVQSLHGVFKVKDTTTLQQHLVDGRDMIIIRMPKDFPPFPQKLKFREPQREERICLVTTNFQTKSMSSMVSDTSCTFPSGDGIFWKHWIQTKDGQCGSPLVSTRDGFIVGIHSASNFTNTNNYFTSVPKNFMELLTNQEAQQWVSGWRLNADSVLWGGHKVHMVKPEEPFQPVKEATQL [F218H], for which the “area with substrate EALYFQS” value came out at 0.0916, the “area with substrate ECLYFQS” value is 0.118, the “area with substrate EDLYFQS” value stood at 0.205 and the “area with substrate EELYFQS” value came to 0.143. The “area with substrate EGLYFQS” value is 0.112, the “area with substrate EHLYFQS” value was 0.146, the “area with substrate EILYFQS” value came to 0.0931 and the “area with substrate ELLYFQS” value came to 0.104. Also, the “area with substrate ERLYFQS” value worked out at 0.0973, the “area with substrate ESLYFQS” value stood at 0.119, the “area with substrate EVLYFQS” value was determined as 0.184 and the “area with substrate EWLYFQS” value stood at 0.0795.
For the variant MGESLFKGPRDYNPISSSICHLTNESDGHTTSLYGIGFGPFIITNKHLFRRNNGTLVVQSLHGVFKVKDTTTLQQHLVDGRDMIIIRMPKDFPPFPQKLKFREPQREERICLVTTNFQTKSMSSMVSDTSCTFPSGDGIFWKHWIQTKDGQCGSPLVSTRDGFIVGIHSASNFTNTNNYFTSVPKNFMELLTNQEAQQWVSGWRLNADSVLWGGHKVFMVYPEEPFQPVKEATQL [K221Y], the “area with substrate EALYFQS” value was determined as 0.0965, the “area with substrate ECLYFQS” value is 0.0974, the “area with substrate EDLYFQS” value was determined as 0.136 and the “area with substrate EELYFQS” value is 0.143. Further, the “area with substrate EFLYFQS” value came to 0.0988, the “area with substrate EGLYFQS” value was found to be 0.111, the “area with substrate EILYFQS” value is 0.0642 and the “area with substrate EKLYFQS” value came to 0.139. The “area with substrate ELLYFQS” value came out at 0.0819, the “area with substrate EMLYFQS” value turned out to be 0.11, the “area with substrate EQLYFQS” value was 0.126 and the “area with substrate ERLYFQS” value was 0.107. Also, the “area with substrate ESLYFQS” value came to 0.0901, the “area with substrate ETLYFQS” value came out at 0.107, the “area with substrate EVLYFQS” value came to 0.0911 and the “area with substrate EWLYFQS” value amounted to 0.0796.
Turning to MGESLFKGPRDYNPISSSICHLTNESDGHTTSLYGIGFGPFIITNKHLFRRNNGTLVVQSLHGVFKVKDTTTLQQHLVDGRDMIIIRMPKDFPPFPQKLKFREPQREERICLVTTNFQTKSMSSMVSDTSCTFPSGDGIFWKHWIQTKDGQCGSPLVSTRDGFIVGIHSASNFTNTNNYFTSVPKNFMELLTNQEAQQWVSGWRLNADSVLWGGHKVFMVTPEEPFQPVKEATQL [K221T], the “area with substrate EALYFQS” value came out at 0.0981, the “area with substrate ECLYFQS” value amounted to 0.09, the “area with substrate EDLYFQS” value stood at 0.133 and the “area with substrate EGLYFQS” value is 0.0792. The “area with substrate ELLYFQS” value was 0.0773, the “area with substrate EMLYFQS” value is 0.103, the “area with substrate EPLYFQS” value turned out to be 0.0819 and the “area with substrate EQLYFQS” value worked out at 0.113. The “area with substrate ERLYFQS” value is 0.0888, the “area with substrate ESLYFQS” value was determined as 0.0465 and the “area with substrate EVLYFQS” value was determined as 0.0728.
Turning to MGESLFKGPRDYNPISSSICHLTNESDGHTTSLYGIGFGPFIITNKHLFRRNNGTLVVQSLHGVFKVKDTTTLQQHLVDGRDMIIIRMPKDFPPFPQKLKFREPQREERICLVTTNFQTKSMSSMVSDTSCTFPSGDGIFWKHWIQTKDGQCGSPLVSTRDGFIVGIHSASNFTNTNNYFTSVPKNFMELLTNQEAQQWVSGWRLNADSVLWGGHKVFMVNPEEPFQPVKEATQL [K221N], the “area with substrate EALYFQS” value was found to be 0.132, the “area with substrate ECLYFQS” value is 0.0901, the “area with substrate EDLYFQS” value was found to be 0.113 and the “area with substrate EELYFQS” value amounted to 0.121. The “area with substrate EHLYFQS” value was determined as 0.103, the “area with substrate EILYFQS” value was 0.0842, the “area with substrate EKLYFQS” value was 0.103 and the “area with substrate ELLYFQS” value turned out to be 0.0776. Further, the “area with substrate EMLYFQS” value stood at 0.126, the “area with substrate EPLYFQS” value was found to be 0.0642, the “area with substrate EQLYFQS” value turned out to be 0.0936 and the “area with substrate ERLYFQS” value was 0.0962. The “area with substrate ESLYFQS” value came to 0.0998, the “area with substrate ETLYFQS” value turned out to be 0.105, the “area with substrate EVLYFQS” value turned out to be 0.0993 and the “area with substrate EWLYFQS” value was 0.106.
